Out of some 310,000 compounds screened, about 14,000 (4.5%) showed an effect of 50% or more. The effect is printed as a negative number. Some of the results follow.
Each compound was assayed against human ether-à-go-go-related gene (hERG) potassium channel (human, UniProt Q12809) (assay: primary screen, population patch clamp on CHO cells stably expressing hERG).
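Further: peak tail current of the secondary pulse compared with the same well before compound.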

Chain of human ether-à-go-go-related gene (hERG) potassium channel (Q12809 whole entry, looked up): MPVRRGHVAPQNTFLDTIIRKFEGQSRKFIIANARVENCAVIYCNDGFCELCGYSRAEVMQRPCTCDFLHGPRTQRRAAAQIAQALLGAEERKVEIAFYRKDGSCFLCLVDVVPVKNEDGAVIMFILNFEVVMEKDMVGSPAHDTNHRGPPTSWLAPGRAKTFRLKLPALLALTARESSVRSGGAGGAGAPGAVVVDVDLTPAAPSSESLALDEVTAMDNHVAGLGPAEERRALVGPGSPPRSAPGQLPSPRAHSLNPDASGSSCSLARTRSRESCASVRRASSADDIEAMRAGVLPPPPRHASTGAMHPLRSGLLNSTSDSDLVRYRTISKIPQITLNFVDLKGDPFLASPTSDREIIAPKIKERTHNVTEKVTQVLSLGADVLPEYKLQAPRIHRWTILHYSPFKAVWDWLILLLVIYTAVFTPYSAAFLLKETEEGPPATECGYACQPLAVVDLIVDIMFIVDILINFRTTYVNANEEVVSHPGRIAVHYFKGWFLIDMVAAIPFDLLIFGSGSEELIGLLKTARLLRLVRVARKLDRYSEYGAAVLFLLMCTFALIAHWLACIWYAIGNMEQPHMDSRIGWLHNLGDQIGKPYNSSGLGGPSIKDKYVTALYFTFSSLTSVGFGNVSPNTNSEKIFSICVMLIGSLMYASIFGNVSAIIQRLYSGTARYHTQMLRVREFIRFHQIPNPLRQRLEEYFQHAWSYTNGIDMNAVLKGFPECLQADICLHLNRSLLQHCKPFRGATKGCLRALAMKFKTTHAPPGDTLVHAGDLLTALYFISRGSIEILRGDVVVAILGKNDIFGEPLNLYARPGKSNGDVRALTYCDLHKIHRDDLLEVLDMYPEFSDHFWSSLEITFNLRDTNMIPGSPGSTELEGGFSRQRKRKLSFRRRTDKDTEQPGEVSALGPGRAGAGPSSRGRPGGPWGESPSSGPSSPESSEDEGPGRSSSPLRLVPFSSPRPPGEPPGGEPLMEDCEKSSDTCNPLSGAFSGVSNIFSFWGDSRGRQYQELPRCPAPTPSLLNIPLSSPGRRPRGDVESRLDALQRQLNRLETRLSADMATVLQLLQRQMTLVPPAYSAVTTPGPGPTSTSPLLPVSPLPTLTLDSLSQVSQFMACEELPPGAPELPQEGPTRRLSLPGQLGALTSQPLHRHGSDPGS

Structure (SMILES) | hERG current change (%, negative = inhibition) at 10uM [%]
O=C(NCC(O)c1ccc([N+](=O)[O-])cc1)c1cccc(S(=O)(=O)N2CCOCC2)c1 (stereo not shown) | -13
CCOC(=O)c1c(-c2ccc(OC)c(OC)c2)csc1NC(=O)C1CCCO1 (stereo not shown) | -22
CC(=O)c1cc2c(cc1NC(=O)CCc1ccccc1)OCO2 | 8.37
CCc1ccccc1NC(=S)NC1CC2CCCC(C1)N2Cc1cccs1 (stereo not shown) | -4.03
Cc1nn(-c2ccccc2)c(C)c1/C=C/C(=O)OC(C)C(=O)Nc1ncc(Cl)cc1Cl (stereo not shown) | -20.3
COc1ccc(/C=C2\SC(=O)N(CCC(=O)NCCCn3ccnc3)C2=O)cc1 | -43.2
Cc1cc(Cl)ccc1OCCCC(=O)NC1CCN(C)CC1 | -51.2
O=C(CCN1C(=O)c2ccccc2S1(=O)=O)N1CCN(c2cccc(Cl)c2)CC1 | -41.2
COc1cc(/C=C/C(=O)Nc2ccc3[nH]c(=O)[nH]c3c2)cc(OC)c1OC | -1.8
C(#Cc1ccccc1)C[N+]1(CC#Cc2cccc3ccccc23)CCCC1.[Br-] | -8.37
COc1ccc(S(=O)(=O)N2CCC(C(=O)NC(c3nc4ccccc4[nH]3)C(C)C)CC2)cc1 (stereo not shown) | 13.8
C/C(CC1(O)C(=O)N(C)c2ccccc21)=N\O (stereo not shown) | 11
CC(C)c1cc(C(=O)N/N=C/c2cccnc2)cs1 | -31.9
Cc1c(O)ccc2c(CC(=O)N[C@@H](Cc3c[nH]c4ccccc34)C(=O)O)cc(=O)oc12 | 19
COc1ccc(CNC(=O)CCCn2ccc3cc(S(=O)(=O)N4CCCC4)ccc32)cc1 | -52
O=S1(=O)N=C2CCCN2C(c2ccc(F)cc2)N1 (stereo not shown) | -1.65
O=C(Nc1cc([N+](=O)[O-])ccc1Cl)C(Sc1ccccc1)c1ccccc1 (stereo not shown) | 4.8
CC(C)(C)C(=O)NC(=S)Nc1ccccc1C(N)=O | 5.4
CC1(C)C2CC=C(/C=N/NC(=S)Nc3cccnc3)C1C2 (stereo not shown) | 16.7
O=S1(=O)NC(=NCC(c2ccco2)N2CCCCC2)c2ccccc21 (stereo not shown) | 8.31
CCOc1cc(C#N)ccc1OCC(=O)N1CCc2ccccc2C1 | -40.7
CCO/C=C1\C(=O)N(c2ccccc2)C(=O)c2ccccc21 | 19.2

Structure (SMILES) | hERG current change (%, negative = inhibition) at 10uM [%]
CCn1c(=O)cc(OCC(=O)N2CCN(Cc3ccc4c(c3)OCO4)CC2)c2ccccc21 | -17.9
Cc1ccc(NC(=O)CS(=O)CC(=O)N(c2ccccc2)C(C)C(=O)NC2CCCC2)cc1 (stereo not shown) | -24
CC(C)CN1CCN(Cc2ccc(C#CC(C)(C)O)cc2)CC1CCO (stereo not shown) | 8.57
Cc1cc(NS(=O)(=O)c2ccc(NC(=O)COc3ccccc3[N+](=O)[O-])cc2)no1 | -1.65
Cn1c(SCC(=O)Nc2ccc3[nH]c(=O)[nH]c3c2)nnc1-c1ccccc1 | 14.3
COc1ccc(C2=Nn3c(nnc3-c3cccnc3)SC2)cc1OC | -61.8
CCN(C(=O)c1cccnc1)c1ccccc1 | 4.13
Cc1onc(C(=O)Nc2c(C)n(C)n(-c3ccccc3)c2=O)c1[N+](=O)[O-] | 1.51
O=C(CN1C(=O)c2ccc([N+](=O)[O-])cc2C1=O)NC1CCS(=O)(=O)C1 (stereo not shown) | -2.95
Cc1ccccc1NC(=S)NCc1ccco1 | 6.52
COc1ccc(-c2noc(CN3CCCC(OCc4ccccn4)C3)n2)cc1 (stereo not shown) | -1.84
O=C(NCc1ccco1)C1CCC(N2C(=O)C3C4CCC(C4)C3C2=O)CC1 (stereo not shown) | 16.7
NC(=O)CCn1c(C(=O)c2cccc([N+](=O)[O-])c2)c2ccccc2[n+]1[O-] | 4.25
O=c1[nH]c(=S)n(Cc2ccc(F)cc2)c(O)c1C=NCCCn1ccnc1 | -60.3
C=CCNc1nc(C(=O)OCC(=O)Nc2ccc(S(N)(=O)=O)cc2)cs1 | -1.3
Cc1ccc(N/C=C(\C2OC(=O)c3ccccc32)[N+](=O)[O-])c(C)c1 (stereo not shown) | 23
Cc1cc(N2C(=O)C(O)=C(C(=O)c3ccco3)C2c2ccccc2F)no1 (stereo not shown) | 13.8
CCOC(=O)c1ccc(NC(=O)c2ccc(OC(C)C)c(OC)c2)cc1 | -3.47
COc1ccccc1/C=C\C=N\n1c(-c2ccc(Cl)cc2)n[nH]c1=S | 14.3
CC(=O)c1ccc(OCC(O)CN(C)CCOc2ccc(Br)cc2)cc1 (stereo not shown) | 23.4
CCOC(=O)N1CCN(C(=O)Nc2ccc(NC(=O)N3CCN(C(=O)OCC)CC3)cc2)CC1 | 17.8
COC(=O)[C@H](C)NC(=O)/C=C/c1ccc(OC)cc1 | -12.7

Structure (SMILES) | hERG current change (%, negative = inhibition) at 10uM [%]
CC(SCc1nc2sc3c(c2c(=O)[nH]1)CCCC3)C(=O)Nc1ccccn1 (stereo not shown) | -6.8
CCOc1ccc(CN2C(=O)c3ccccc3C2C(=O)NCC2CCCO2)cc1 (stereo not shown) | 4.63
Oc1ccc(-c2cn3ccccc3n2)cc1O | 5.1
Cc1ncoc1C(=O)Nc1ccccc1-c1ccccc1 | -8.12
CCOC(=O)N1CCN(C(=O)c2ccc3c(=O)n(-c4ccccc4F)c(=S)[nH]c3c2)CC1 | 22.3
Cc1onc(-c2ccccc2)c1C(=O)NNC(=S)NC(=O)c1ccc(F)cc1 | 22.8
CC1(C)C(/C=C/C=C/C=C/C=C2\N(CCCCS(=O)(=O)[O-])c3ccc4ccccc4c3C2(C)C)=[N+](CCCCS(=O)(=O)[O-])c2ccc3ccccc3c21.[Na+] | -15.5
C=CCn1c(Cc2cccs2)nnc1SCC(=O)Nc1ccc(OC)c(OC)c1 | -0.0755
O=C(Cn1c(=O)sc2ccccc21)Nc1ccc(S(=O)(=O)N2CCCCC2)cc1 | -13.2
CC1CCN(C(=O)CSc2nnc(-c3cccnc3)n2C2CCCCC2)CC1 | -5.87
Cc1ccc(NC(=O)COC(=O)c2ccc3c(c2)OCO3)cc1S(=O)(=O)N1CCCCC1 | -3.06
O=C(NCC1CCCN1S(=O)(=O)c1cccs1)C(=O)Nc1ccccc1Cl (stereo not shown) | -13.7
CCNC(=S)Nc1cc(C)ccn1 | 13.6
Cc1cn(C2CC3OCC3O2)c(=O)[nH]c1=O (stereo not shown) | 8.55
CC(=O)Nc1ccc(S(=O)(=O)Nc2ccc(N3CCOCC3)cc2)cc1 | 6.22
CCc1c(C)nc(N)nc1N1N=C1SCC(=O)OC | -0.87
CC(C)CC(=O)NC(=S)Nc1ccccc1C(=O)Nc1ccccc1 | 8.01
C/C(=N/NC(=O)c1ccc(-c2ccccc2)cc1)c1cccc(O)c1 | 11
CC(=O)Nc1ccc(NC(=O)C2CCN(C(=O)C3CC(=O)N(c4ccc(C)cc4)C3)CC2)cc1 (stereo not shown) | 12.4
COc1ccc(N2CCN(CCCNC(=O)c3ccc(CS(=O)(=O)c4ccc(Cl)cc4)o3)CC2)cc1 | -77.1
Cc1cc(C)n(C(C[N+](=O)[O-])c2ccc(Cl)cc2)n1 (stereo not shown) | -20.4
COCC1CCCN(C(=O)c2cc(COc3ccc4ncccc4c3)on2)C1 (stereo not shown) | 7.8

Structure (SMILES) | hERG current change (%, negative = inhibition) at 10uM [%]
CC(=O)Nc1nonc1-c1nc2ccccc2n1N(C(C)=O)C(C)=O | 11.9
Cc1cccc(C)c1NC(=S)N(Cc1cccs1)C1CCCC1 | 4.16
COc1ccc(S(=O)(=O)N(C)C)cc1NC(=O)CCNC(=O)c1ccco1 | 16
COc1ccc(NC2CC(=O)N(c3ccccc3)C2=O)cc1 (stereo not shown) | -2.95
CN1CCN(S(=O)(=O)c2cccc(C(=O)N(C)CC(=O)Nc3ccc(F)c(F)c3F)c2)CC1 | 19.7
O=C(O)C1C2CCC(O2)C1C(=O)Nc1ccc(Cl)cc1F (stereo not shown) | 7.83
O=C(Cn1ncc2c([nH]c3ccccc32)c1=O)N1CCN(c2ccc(F)cc2)CC1 | 31.1
CCC(=O)c1ccc(OCC(=O)c2ccc3c(c2)NC(=O)CO3)cc1 | 3.56
Cc1cccc(NC(=O)C2CC(=O)NC(Nc3nc4ccccc4s3)=N2)c1 (stereo not shown) | 12.2
COCc1cc(C)nc(SCc2nc3ccccc3c(=O)[nH]2)c1C#N | -1.85
Cc1ccc(-n2ccnc2SCC(=O)c2c(N)n(C3CC3)c(=O)[nH]c2=O)cc1C | 15.1
CN(C)c1nnnn1-c1ccc(Oc2ncc(C(F)(F)F)cc2Cl)cc1 | -20.1
Cc1ccc(S(=O)(=O)N2CCC(C(=O)Nc3ccc(S(=O)(=O)N4CCCC4)cc3)CC2)cc1 | -10.6
CCCCCOc1ccc(NC(=O)CCCC(=O)O)cc1 | 1.26
O=C1C=C(O)C(n2cncn2)C(c2cc(F)ccc2F)C1 (stereo not shown) | 23.4
CCCCC(NC(=O)CCc1c(C)c2cc3c4c(oc3c(C)c2oc1=O)CCCC4)C(=O)O (stereo not shown) | 8.88
COc1ccc(C(=O)NC2CCCCCC2)cc1S(=O)(=O)Nc1ccc(Br)cc1 | -8.4
Nc1ccc(C(=O)Nc2ccc3nc(-c4ccncc4)[nH]c3c2)cc1 | 42.6
Cc1ccc(S(=O)(=O)NC(=O)NN2CCCCCC2)cc1 | 7.42

From article PMC4336329 (PLoS ONE, 2015)
